# Measured values taken from publication PMC4336329 (PLoS ONE, 2015).
# Screen size: about 310,000 compounds; about 14,000 (4.5%) showed an effect of 50% or more. The effect is printed as a negative number. The list shows a part of the results.
# Target: human ether-à-go-go-related gene (hERG) potassium channel (human, UniProt Q12809)
# Assay: primary screen, population patch clamp on CHO cells stably expressing hERG
# 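Further: peak tail current of the secondary pulse compared with the same well before compound.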
# Sequence of human ether-à-go-go-related gene (hERG) potassium channel (Q12809 whole entry, looked up): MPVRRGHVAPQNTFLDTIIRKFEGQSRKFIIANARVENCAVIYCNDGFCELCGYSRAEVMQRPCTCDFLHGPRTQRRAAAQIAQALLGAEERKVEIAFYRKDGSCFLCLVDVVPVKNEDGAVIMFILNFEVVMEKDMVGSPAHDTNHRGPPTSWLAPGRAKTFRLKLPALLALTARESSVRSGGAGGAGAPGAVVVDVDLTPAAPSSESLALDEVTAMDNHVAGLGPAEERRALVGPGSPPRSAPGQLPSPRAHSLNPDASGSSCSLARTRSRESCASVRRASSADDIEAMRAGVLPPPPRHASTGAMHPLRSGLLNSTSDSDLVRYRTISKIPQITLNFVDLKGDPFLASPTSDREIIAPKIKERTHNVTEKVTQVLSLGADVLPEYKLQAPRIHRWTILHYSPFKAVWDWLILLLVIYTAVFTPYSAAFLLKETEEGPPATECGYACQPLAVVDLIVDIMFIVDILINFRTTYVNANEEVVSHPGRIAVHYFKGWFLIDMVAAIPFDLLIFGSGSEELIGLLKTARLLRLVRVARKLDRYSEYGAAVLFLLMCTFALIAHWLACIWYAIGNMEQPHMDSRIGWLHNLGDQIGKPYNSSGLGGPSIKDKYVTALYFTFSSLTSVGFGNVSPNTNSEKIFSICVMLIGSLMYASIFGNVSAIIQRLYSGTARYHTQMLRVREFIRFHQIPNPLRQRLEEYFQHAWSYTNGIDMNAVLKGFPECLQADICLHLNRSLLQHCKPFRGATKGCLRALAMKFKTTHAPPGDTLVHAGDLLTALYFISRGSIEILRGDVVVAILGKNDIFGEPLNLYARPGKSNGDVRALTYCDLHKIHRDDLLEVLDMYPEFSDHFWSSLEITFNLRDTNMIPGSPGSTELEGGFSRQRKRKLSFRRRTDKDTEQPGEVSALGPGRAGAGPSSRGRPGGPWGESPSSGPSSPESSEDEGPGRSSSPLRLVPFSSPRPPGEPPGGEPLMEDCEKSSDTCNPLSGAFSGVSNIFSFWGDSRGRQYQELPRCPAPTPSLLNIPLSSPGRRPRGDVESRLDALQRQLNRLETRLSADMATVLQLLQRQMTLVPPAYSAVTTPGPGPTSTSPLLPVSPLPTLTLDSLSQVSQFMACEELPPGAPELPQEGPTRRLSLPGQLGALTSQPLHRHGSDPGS
row,Structure (SMILES),"hERG current change (%, negative = inhibition) at 10uM"
1,Cc1ccc(S(=O)(=O)NC(=O)c2cc(C)n(CCCn3ccnc3)c2C)cc1,-2.28%
2,O=C(COc1ccc(S(=O)(=O)NC2CCCC2)cc1)N1CCCCC1,5.57%
3,O=c1cc(Nc2ccc3c(c2)OCCO3)[nH]c(=O)n1C1CCCCC1,-2.29%
4,Cc1cccc(NC(=O)CN2C(=O)S/C(=C\C(=O)Nc3ccc(Cl)cc3)C2=O)c1,31.7%
5,Cc1cc(C)n(Cc2cnc(N3CCOCC3)s2)n1,14.9%
6,Cc1nn(C(=O)C2CC2)c(C)c1Sc1ccc(Cl)cc1,19.9%
7,O=C(N/N=C/c1ccc([N+](=O)[O-])cc1)c1ccc2nc[nH]c2c1,8.66%
8,O=C(NC1CCC(=O)N(CCSc2ccccc2)CC1)OCc1ccccc1 (centres unmarked),-59.2%
9,COc1ccc(/C=N/NC(=O)c2ccccc2O)cc1Cn1cc([N+](=O)[O-])cn1,10.6%
10,NC(=O)COC(=O)c1cc(-c2ccco2)nc2ccccc12,-9.66%
11,CCc1cccc(CC)c1N(COC)C(=O)Cn1c(CO)nc2ccccc21,2.52%
12,CC(C)Cn1c(CCCNC(=O)c2ccc(F)cc2)nc2ccccc21,-50.3%
13,CN(C)CCN1C(=O)C(O)=C(C(=O)c2cc3ccccc3o2)C1c1cccc(Br)c1 (centres unmarked),18.8%
14,Cc1ccc(N(CC(=O)N/N=C/c2ccco2)S(=O)(=O)c2ccccc2)cc1,-2.32%
15,CCCCC(c1nnnn1Cc1ccco1)N1CCN(C(=O)c2ccco2)CC1.Cl (centres unmarked),-51.8%
16,O=[N+]([O-])c1ccc(N2CCN(S(=O)(=O)c3ccc(Cl)c(Cl)c3)CC2)cc1NCCN1CCOCC1,3.04%
17,CCOc1ccccc1C(=O)N1CCN(C(c2ccccc2)c2ccccc2)CC1,0.314%
18,Cc1cccc(Nc2nc(N)c([N+](=O)[O-])c(N3CCOCC3)n2)c1,-37.1%
19,COC(CNC(=O)C1CCN(C(=O)c2cc3oc(C)cc3n2Cc2c(F)cccc2Cl)CC1)OC,2.22%
20,Cc1ccc(OCCNC(=O)CN2C(=O)NC3(CCCC3)C2=O)cc1,-6.56%
21,CC(=O)NCC(=O)O.CN(C)CCC1c2ccc(Cl)cc2CCc2cccnc21 (centres unmarked),-11.7%
22,COCCn1c(SCc2cnc(-c3ccccc3)s2)nnc1-c1ccncc1,-25.7%

row,Structure (SMILES),"hERG current change (%, negative = inhibition) at 10uM"
1,Cc1ccc(/C=C/C2=NN(Cc3ccccc3)C(=O)CC2)cc1,11.2%
2,O=C(OCC(=O)N1CCN(c2ccccc2)CC1)c1ccccc1OC(F)F,-11.9%
3,Cn1c(CNC(=O)c2ccc(Cl)cc2)nnc1SCC(=O)NC1=NCCS1,3.89%
4,O=C(NNC(=O)c1cccnc1)Nc1ccccc1,1.09%
5,CCOP(=O)(OCC)C(NC(=O)Nc1ccccc1)C(N)=O (centres unmarked),9.93%
6,FC(F)Sc1ccc(NC(=S)NC2CCC(NC(=S)Nc3ccc(SC(F)F)cc3)CC2)cc1 (centres unmarked),4.68%
7,COc1cccc(-n2c(=O)n(Cc3ccccc3)c(=O)c3[nH]cnc32)c1,-16.1%
8,O=C(COC(=O)C12CC3CC(CC(C3)C1)C2)NCc1ccco1,-8.35%
9,CCC1(c2ccccc2)NC(=O)N(CC(=O)N(C)CC(=O)Nc2cccc(F)c2)C1=O (centres unmarked),15.5%
10,CCN(C(=O)COC(=O)CCC(=O)c1ccccc1)c1c(N)n(Cc2ccccc2)c(=O)[nH]c1=O,15.6%
11,Cc1nc(C)c(-c2ccc(SCC(=O)Nc3cccc(Cl)c3C)nn2)s1,-16.5%
12,CCCN(CC(=O)Nc1ccccc1C)C(=O)COc1c(Cl)cccc1Cl,-15.8%
13,Cn1c(=O)[nH]c(=O)c2c1nc(N)n2Cc1ccccc1,-0.871%
14,C=CCN=c1scc(-c2ccc(F)cc2)n1/N=C/c1ccccn1,9.2%
15,CC(=O)C1=C(O)CCCC1=NCc1nc2ccccc2[nH]1,13.9%
16,COc1ccc(OC)c(NC(=O)C2CCCCC2C(=O)O)c1 (centres unmarked),-34%
17,O=C(COc1ccc2ccccc2c1)NNC(=O)Nc1ccc(F)cc1F,13.8%
18,COc1cccc(NC(=O)CSc2nnc3cc(C)nc(N)n23)c1,7.55%
19,COc1ccc(S(=O)(=O)N(C)CC(=O)NCCN2CCOCC2)cc1Cl,6.98%
20,O=C(NC1CCc2ccccc21)c1cc(COc2ccc(F)cc2F)on1 (centres unmarked),16.5%
21,Cc1cccc(NC(=S)NCCN2CCOCC2)c1,5.41%
22,COc1ccccc1NC(=O)N1CCN(c2ccc(F)cc2)CC1,-18.7%
